Results published in the supplement of paper PMC9446081.
In all, about 39,000 compounds went through this assay and about 220 (0.56%) showed activity. The list shows a part of the results.

These compounds were tested on Escherichia coli K-12 BW25113 (assay: relative growth (OD600 normalised to plate interquartile mean) (fraction); higher = less growth inhibition, active = 0.2 or less). Details: 50 µM; LB; incubation time: overnight (16-24 h).
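Also: static incubation at 37 °C against the wild-type strain, values averaged over two biological replicates.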

| Structure (SMILES) | relative growth |
| --- | --- |
| C[C@H](CO)N1C[C@H](C)[C@@H](CN(C)Cc2ccc(-c3ccccc3)cc2)Oc2ccc(NC(=O)Cn3cnnn3)cc2CC1=O | inactive: 0.988 |
| C[C@@H]1CN([C@@H](C)CO)C(=O)c2cc(NS(=O)(=O)c3cn(C)cn3)ccc2O[C@@H](C)CCCCO[C@@H]1CN(C)C(=O)Nc1cccc2ccccc12 | inactive: 0.963 |
| Cc1noc(C)c1NC(=O)N(C)C[C@@H]1Oc2c(NC(=O)C3CCOCC3)cccc2C(=O)N([C@@H](C)CO)C[C@H]1C | inactive: 0.98 |
| C[C@@H]1CN([C@@H](C)CO)C(=O)c2cc(NC(=O)Nc3cccc4ccccc34)ccc2O[C@H]1CN(C)C(=O)Nc1ccc2c(c1)OCO2 | inactive: 0.994 |
| C[C@@H]1CN([C@@H](C)CO)C(=O)Cc2cc(NC(=O)Cc3ccccc3)ccc2O[C@H]1CN(C)S(=O)(=O)c1cn(C)cn1 | inactive: 0.945 |
| Cc1cc(C(=O)Nc2cccc3c2O[C@@H](CN(C)Cc2ccncc2)[C@H](C)CN([C@H](C)CO)C3=O)n(C)n1 | inactive: 0.995 |
| C[C@H](CO)N1C[C@H](C)[C@H](CN(C)S(C)(=O)=O)OCCCC[C@H](C)Oc2ccc(NC(=O)CCCN(C)C)cc2C1=O | inactive: 0.99 |
| C[C@@H]1CN([C@@H](C)CO)C(=O)c2cc(NC(=O)CCCN(C)C)ccc2O[C@@H]1CN(C)C(=O)Nc1ccc2c(c1)OCO2 | inactive: 0.964 |
| C[C@@H]1CCCCO[C@H](CN(C)Cc2ccccc2)[C@@H](C)CN([C@H](C)CO)C(=O)c2cc(NS(=O)(=O)c3cccs3)ccc2O1 | inactive: 0.987 |
| CN1C(=O)c2cc(NC(=O)c3ccc(F)cc3)ccc2OC[C@@H]2O[C@H](CC(=O)N3CCOCC3)CC[C@H]21 | inactive: 1.03 |
| C[C@H](CO)N1C[C@H](C)[C@@H](CN(C)Cc2ccc(C(=O)O)cc2)OCCCC[C@H](C)Oc2ccc(NC(=O)C3CCCCC3)cc2C1=O | inactive: 1.01 |
| COC[C@H]1CN(CC2CC2)Cc2nnn(C)c21 | inactive: 1 |
| CNCc1cccc2ccccc12 | inactive: 0.955 |
| CCCCC/C=C/C=C1/C(=O)C=C[C@@H]1C/C=C\CCCC(=O)O | inactive: 1.05 |
| CC(C)NC(=O)Nc1ccc2c(c1)C(=O)N([C@H](C)CO)C[C@H](C)[C@H](CN(C)C(=O)NC1CCCCC1)O2 | inactive: 0.995 |
| O=C(N/N=C/c1ccc(B(O)O)cc1)c1ccccc1O | inactive: 0.972 |
| CCOC(=O)Cn1cnc2ccccc2c1=O | inactive: 0.994 |
| Cc1ccc(S(=O)(=O)Nc2ccc3c(c2)CC(=O)N([C@H](C)CO)C[C@H](C)[C@@H](CN(C)CC2CC2)O3)cc1 | inactive: 0.963 |
| C[C@@H]1CN([C@@H](C)CO)C(=O)c2cccc(NC(=O)C3CCCCC3)c2O[C@@H]1CN(C)Cc1ccc(Cl)c(Cl)c1 | inactive: 0.988 |
| C[C@@H]1CN([C@H](C)CO)C(=O)Cc2cc(NS(C)(=O)=O)ccc2O[C@H]1CN(C)C(=O)Nc1ccccc1 | inactive: 1 |
| CCOC(=O)C(C#N)C1=NCCC1 (stereo not drawn) | inactive: 1.02 |

| Structure (SMILES) | relative growth |
| --- | --- |
| COc1cccc(NC(=O)N(C)C[C@@H]2Oc3ncc(C#Cc4cccnc4)cc3C(=O)N([C@H](C)CO)C[C@@H]2C)c1 | inactive: 0.995 |
| Cc1ccc(S(=O)(=O)N(C)C[C@@H]2Oc3ccc(NC(=O)c4ccncc4)cc3C(=O)N([C@H](C)CO)C[C@H]2C)cc1 | inactive: 0.992 |
| Cc1cccc(NC(=O)C[C@H]2NCCNC2=O)c1 | inactive: 0.904 |
| CC(C)NC(=O)Nc1ccc2c(c1)C(=O)N([C@@H](C)CO)C[C@H](C)[C@H](CN(C)S(=O)(=O)c1cn(C)cn1)OCCCC[C@H](C)O2 | inactive: 0.986 |
| Cc1ccc(S(=O)(=O)N(C)C[C@@H]2Oc3ccc(NS(=O)(=O)c4c(C)noc4C)cc3C(=O)N([C@@H](C)CO)C[C@H]2C)cc1 | inactive: 1.02 |
| Cl.O=C(COc1ccc(Cl)cc1)N1CCN(Cc2ccc3c(c2)OCO3)CC1 | inactive: 1.02 |
| C[C@H]1CN([C@@H](C)CO)C(=O)c2cc(NC(=O)Nc3ccc4c(c3)OCO4)ccc2O[C@@H]1CN(C)C(=O)Nc1cccc2ccccc12 | inactive: 0.93 |
| C[C@@H]1CN([C@@H](C)CO)C(=O)c2cc(NC(=O)c3ccccc3)ccc2O[C@@H](C)CCCCO[C@H]1CN(C)C(=O)NC1CCCCC1 | inactive: 1.02 |
| CN(C)CC#Cc1ccc([C@@H]2[C@H](CO)N3CCCCN(C(=O)CN(C)C)C[C@@H]23)cc1 | inactive: 0.987 |
| COc1ccc(NC(=O)N(C)C[C@H]2Oc3c(NC(=O)c4ccc(-c5nccs5)cc4)cccc3C(=O)N([C@H](C)CO)C[C@@H]2C)cc1 | inactive: 0.998 |
| COc1ccc(S(=O)(=O)Nc2ccc3c(c2)C(=O)N([C@@H](C)CO)C[C@H](C)[C@H](CN(C)C(=O)Nc2ccccc2)OCCCC[C@H](C)O3)cc1 | inactive: 0.993 |
| Cc1noc(C)c1NC(=O)N(C)C[C@H]1Oc2ncc(C#CCC(C)C)cc2C(=O)N([C@H](C)CO)C[C@H]1C | inactive: 0.977 |
| C[C@@H]1CN([C@H](C)CO)C(=O)c2cccc(NC(=O)Nc3ccc(C(F)(F)F)cc3)c2O[C@H]1CN(C)Cc1ccc(C(F)(F)F)cc1 | inactive: 0.849 |
| C[C@H]1CN([C@@H](C)CO)C(=O)Cc2cc(NC(=O)Nc3cccc4ccccc34)ccc2O[C@@H]1CN(C)CC1CCCCC1 | inactive: 0.979 |
| C[C@@H]1CN([C@@H](C)CO)C(=O)CCCn2cc(nn2)CO[C@@H]1CN(C)C(=O)Nc1cccc2ccccc12 | inactive: 1 |
| Cc1scc2c1N(C(=O)CN1CCN(C)CC1)c1ccccc1NC2=O.Cl | active: 0.044 |
| COc1cccc(NC(=O)N(C)C[C@H]2OCc3ccccc3-c3c(n(C)c4ccccc34)C(=O)N([C@@H](C)CO)C[C@H]2C)c1 | inactive: 0.995 |
| COc1ccc(NC(=O)N(C)C[C@@H]2OCCCC[C@@H](C)Oc3ccc(NC(=O)c4ccccc4)cc3C(=O)N([C@@H](C)CO)C[C@H]2C)cc1 | inactive: 1.01 |
| C[C@H]1CN([C@@H](C)CO)C(=O)c2cccc(NC(=O)Nc3ccccc3)c2O[C@@H]1CN(C)Cc1ccc(-c2ccccc2)cc1 | inactive: 0.971 |
| Cc1noc(C)c1S(=O)(=O)Nc1cccc2c1O[C@@H](CN(C)S(=O)(=O)c1cn(C)cn1)[C@@H](C)CN([C@@H](C)CO)C2=O | inactive: 1 |
| COc1ccc(CN(C)C[C@@H]2Oc3c(NS(C)(=O)=O)cccc3C(=O)N([C@@H](C)CO)C[C@H]2C)cc1 | inactive: 1 |

| Structure (SMILES) | relative growth |
| --- | --- |
| O=C(C[C@H]1CC[C@@H]2[C@H](COC[C@H](O)CN2S(=O)(=O)c2ccccc2Cl)O1)NCc1ccccc1Cl | inactive: 0.989 |
| COc1cc(C(=O)OCCCN2CCN(CCCOC(=O)c3cc(OC)c(OC)c(OC)c3)CC2)cc(OC)c1OC | inactive: 1.01 |
| C[C@H]1CN([C@@H](C)CO)C(=O)c2cc(NS(=O)(=O)c3ccc(Cl)cc3)ccc2O[C@@H]1CN(C)Cc1ccc(C(F)(F)F)cc1 | inactive: 1.05 |
| CO[C@H]1CN(C)C(=O)c2cc(NC(=O)Nc3ccc(Cl)cc3)ccc2OC[C@H](C)N(C(=O)Nc2c(C)noc2C)C[C@@H]1C | inactive: 0.996 |
| COC(=O)c1cnn2c(=O)c3c([nH]c12)CCC3 | inactive: 0.951 |
| CCN(CC)C(=O)N1CCN(C)CC1 | inactive: 1.01 |
| C[C@H](CO)N1C[C@H](C)[C@H](CN(C)Cc2ccc(C(=O)O)cc2)OCCCC[C@H](C)Oc2ccc(NC(=O)c3ccccc3)cc2C1=O | inactive: 1.01 |
| CC(C)CC(=O)N1CCN(S(C)(=O)=O)CC1 | inactive: 1 |
| O=C(O)c1cc(O)c(O)c(O)c1 | inactive: 1.12 |
| COc1ccc(CN(C)C[C@@H]2OCCCC[C@H](C)Oc3ccc(NC(=O)NC(C)C)cc3C(=O)N([C@@H](C)CO)C[C@H]2C)cc1 | inactive: 0.988 |
| COc1cccc(CNC(=O)c2cc3c(c(-c4cccc(-c5ccncc5)c4)n2)[C@H](CCO)N([S@@](=O)C(C)(C)C)C3)c1 | inactive: 0.956 |
| Cc1noc(C)c1NC(=O)N[C@H]1CC[C@H](CC(=O)N2CCN(C)CC2)O[C@H]1CO | inactive: 1 |
| NS(=O)(=O)OCCCCCCCOS(N)(=O)=O | inactive: 1.01 |
| C[C@@H]1CN([C@H](C)CO)C(=O)c2cc(NC(=O)Nc3ccc4c(c3)OCO4)ccc2O[C@@H](C)CCCCO[C@@H]1CN(C)Cc1ccc2c(c1)OCO2 | inactive: 1.02 |
| CC(C)=CCCC(C)=CCCC(C)=CCO ["trans,trans-FARNESOL"] | inactive: 0.916 |
| C[C@@H]1CCCCO[C@@H](CN(C)C(=O)C2CCCCC2)[C@@H](C)CN([C@H](C)CO)C(=O)c2cc(NC(=O)CCC(F)(F)F)ccc2O1 | inactive: 0.92 |
| CCS(=O)(=O)Nc1ccc2c(c1)C(=O)N(C)C[C@H](OC)[C@@H](C)CN(CCC(F)(F)F)[C@@H](C)CO2 | inactive: 0.961 |
| C[C@@H]1CCCCO[C@H](CN(C)C(=O)C2CCCCC2)[C@@H](C)CN([C@H](C)CO)C(=O)c2cc(NC(=O)CCC(F)(F)F)ccc2O1 | inactive: 1.02 |
| COc1ccc(CN(C)C[C@H]2OCCCC[C@@H](C)Oc3ccc(NC(=O)Nc4ccc5c(c4)OCO5)cc3C(=O)N([C@@H](C)CO)C[C@H]2C)cc1 | inactive: 0.994 |
| CC(C)NC(=O)N(C)C[C@H]1OCCCC[C@@H](C)Oc2ccc(NC(=O)Nc3ccccc3)cc2C(=O)N([C@@H](C)CO)C[C@H]1C | inactive: 0.996 |
| C[C@@H]1CN([C@H](C)CO)C(=O)c2cc(NC(=O)Nc3cccc4ccccc34)ccc2O[C@@H](C)CCCCO[C@H]1CN(C)Cc1ccncc1 | inactive: 0.976 |
